Some of the results follow. These are further read-outs of the screen, such as a control signal, another cell line or another target. No call is given for them. Compounds called inactive in the main read-out are mostly missing here.

This test can be described thus: beta-lactam sensitization of Mtb H37Rv, H37Rv (AID 434955).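 Note: growth measured after seven days incubation then overnight dye step; 0% = bacteria only wells and 100% = bacteria with antibiotic.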 Particulars: M. tuberculosis H37Rv growth with meropenem, percent inhibition; measured here: primary screen without meropenem; at 25 µM.
By inhibition is commonly meant the change of the read-out against control, counted positive when it falls. For the compound `C=C(C)COc1ccc2c(C)c(C)c(=O)oc2c1OCC(=C)C`, the inhibition worked out at 36.9%.
In the case of `Cc1ccc2c(c1)N(CC(=O)NCCc1ccc(Cl)cc1)C(=O)c1cccnc1O2`, the inhibition was determined as 3.74%.
Then `CC(Oc1ncnc2ccccc12)C(=O)Nc1cccc(S(=O)(=O)N2CCOCC2)c1` (stereo not drawn), with -7.97%.
As to `CCN(CC)S(=O)(=O)c1cc(C(=O)N=c2sccn2C)ccc1OC`, the inhibition was -5.1%.
Regarding `CC(C)OC(=O)CSc1nnc(Cc2ccccc2)n1Cc1ccco1`, the inhibition was 2.33%.
Then `O=C(CCc1nnc2ccc(NCc3ccc(Cl)cc3)nn12)NC1CCCCC1`, with 6.86%; and `COc1cccc(C(=O)OCC(=O)NCCNC(=O)COC(=O)c2cccc(OC)c2OC)c1OC`, with -12.1%.
Turning to `COc1ccc(C(=O)CN(C(=O)c2ccc(Cl)cc2)N2C(=O)c3ccccc3C2=O)cc1`, the inhibition amounted to 29.7%.
Turning to `Cc1cccc(NC(=O)CSc2ccc3nnc(-c4cccnc4)n3n2)c1`, the inhibition was -5.36%.
Regarding `Cc1occc1C(=O)N1CCN(c2ccc(Cl)cc2)CC1`, the inhibition was determined as 14.3%.
Take `CCOC(=O)CCC(=O)NCc1ccc2c(c1)cc(C)n2C`: the inhibition was -4.57%.
Then `COc1ccc(C(=O)Oc2ccc(/C=N/O)cc2)cc1`, with 0.87%; and `CC(CNC(=O)CN1C(=O)c2cccnc2Oc2ccc(Cl)cc21)c1ccccc1` (stereo not drawn), with 2.62%; and `COC(=O)c1cn(NC(=O)Cc2ccc(Cl)c(Cl)c2)c(=O)c2ccccc12`, with -7.09%.
Then `O=C1OC(c2ccco2)=N/C1=C\c1ccc(-c2cccc(C(F)(F)F)c2)o1`, with 49.4%; and `CCC(C)c1ccccc1NS(=O)(=O)c1cnn(CC)c1` (stereo not drawn), with -1.37%.
In the case of `Cc1ncc(CN2CCC(n3nccc3NC(=O)c3ccccc3)CC2)s1` it was -15.1%.
Regarding `COc1ccc(OC)c(C2C(C(=O)c3ccco3)=C(O)C(=O)N2CCN2CCOCC2)c1` (stereo not drawn), the inhibition was determined as 1.66%.
In the case of `CCCn1cc(CN2CCC(n3nccc3NC(=O)c3ccccc3)CC2)c(C)n1` it was -3.28%; in that of `COc1ccc(/C=C2\SC(=S)N(CCC(=O)NCCCn3ccnc3)C2=O)cc1`, -2.44%.
Then `O=C(C1=C(O)C(=O)N(CCCn2ccnc2)C1c1ccc(F)cc1)c1ccco1` (stereo not drawn), with -0.77%; and `COc1cccc(-c2cccc(NC(=O)C3CCN(C4CCC4)CC3)c2)c1`, with -6.3%.
`O=C(Nc1nc2ccc(F)cc2s1)c1cccc(S(=O)(=O)N2CCc3ccccc32)c1`: the inhibition came out at 62%.
Then `Cc1cc(N2CCN(C(=O)c3ccco3)CC2)n2nc(-c3cccc(F)c3)cc2n1`, with 0.82%; and `COc1ccccc1N=c1oc2cc(O)ccc2cc1C(=O)NCC1CCCO1` (stereo not drawn), with -3.85%; and `COc1ccc(-c2cc(C(F)(F)F)c(C#N)c(SCC(=O)Nc3nc(C)co3)n2)cc1`, with 1.86%.
For `CC(=O)c1cc(C(=O)N2CCCC(C(=O)c3ccc(Cl)cc3)C2)cs1` (stereo not drawn), the inhibition came out at 2.84%.
As to `CCc1nc(SCC(=O)Nc2ccccc2C)n[nH]1`, the inhibition worked out at 3.57%.
As to `Cc1nc(-c2ccc(F)cc2)c(CC(=O)N2CCN(S(=O)(=O)c3ccc(F)cc3)CC2)s1`, the inhibition worked out at 4.34%.
In the case of `COC(=O)CNC(c1ccccc1Cl)c1cc(Br)ccc1NC(=O)CCN1CCOCC1` (stereo not drawn) it was 4.94%; in that of `C/C(=N\NC(=O)c1ccc(OC2CCCC2)cc1)c1ccc(O)cc1`, 12.8%; in that of `CCOc1cccc(-c2nnc(SCC(=O)NC3CC3)n2C)c1`, 0.21%.
For the compound `NS(=O)(=O)c1cccc(NC(=O)CCSc2ccc(Cl)cc2)c1`, the inhibition was -10.9%.
On to `COc1ccc(-n2ncc3c(=O)n(CC(=O)N4CCCc5ccccc54)cnc32)cc1`, for which the inhibition was -0.52%.
Consider `CCCOP(=O)(c1ccc(N(C)C)cc1)C(O)c1c(Cl)cccc1Cl` (stereo not drawn), for which the inhibition turned out to be 4.1%.
In the case of `Nc1nc2n(n1)C(c1cccc(Br)c1)CC(c1ccc(F)cc1)N2` (stereo not drawn) it was 1.63%; in that of `CCC1CCCCN1CCCNC(=O)Cn1nc(C)n2nc(-c3ccccc3)cc2c1=O` (stereo not drawn), 1.58%; in that of `CCc1ccc(C(=O)COC(=O)CNC(=O)Cc2ccccc2)cc1`, 1.7%.
Then `CCOC(=O)c1sc(NC(=O)CSc2nc3c(cc2C#N)CCCCCC3)c(C#N)c1C`, with 2.26%.
Then `O=C(Nc1ccc2c(c1)CN(Cc1ccco1)CC2)C1CCCO1` (stereo not drawn), with -4.48%; and `CCc1ccc(N2CC34C=CC(O3)C(C(=O)OC)C4C2=O)cc1` (stereo not drawn), with -2.53%.
For `COc1ccc(-c2csc(/C=C/c3ccc4c(c3)OCO4)n2)cc1OC`, the inhibition amounted to 19.8%.
Then `CCN(CC)C(=O)NC1CC2CCCC(C1)N2Cc1ccccc1` (stereo not drawn), with 5.3%; and `CCN1C(=O)c2ccccc2S(=O)(=O)c2ccc(C(=O)NCCOC)cc21`, with 9.48%; and `COCCCNC(=O)Cn1c(=O)n(CC(=O)N2CCCCC2)c(=O)c2sccc21`, with -1.34%.
Take `O=C(Nc1ccccc1)c1cc(S(=O)(=O)Nc2cccnc2)ccc1Cl`: the inhibition was determined as 1.78%.
Then `CCc1nc(NC(=O)c2sc(C)nc2C)sc1C(=O)OC`, with -6.65%; and `O=C(C1=C[C@@H](c2ccc(Br)cc2)C[C@@H](OCc2ccc(CO)cc2)O1)N1CCN(Cc2ccc3c(c2)OCO3)CC1`, with 32.4%; and `COc1ccccc1CCn1cnc2c3cc(C)ccc3n(C)c2c1=O`, with 6.55%.
In the case of `O=C1NC(c2ccccc2)=C(c2nc3ccccc3s2)C(c2ccccc2)N1` (stereo not drawn), the inhibition amounted to 77.1%.
For `CC1Cc2ccccc2N1C(=O)C1CCCCN1S(=O)(=O)c1ccccc1` (stereo not drawn), the inhibition worked out at 8.84%.
In the case of `O=C1CNC(=S)N1Cc1ccc(F)cc1` it was -1.34%; in that of `CCOC(=O)c1[nH]c(C)c(C(=O)N2CCOCC2)c1C`, -9.63%; in that of `O=C(CSc1nnc(NC(=O)c2cccc(Cl)c2)s1)NCC1CCCO1` (stereo not drawn), 7.83%.
For `COc1ccc(N2CCN(C(=O)COC(=O)c3ccco3)CC2)cc1`, the inhibition came to 15.5%.
Then `Cc1cnc(C(=O)OC(C)C(=O)Nc2ccc3c(c2)OCCO3)cn1` (stereo not drawn), with 3.62%.
In the case of `Nc1nc2ccccc2n1C(=O)c1cccs1` it was 10.2%; in that of `COc1ccc(NC(=O)CSc2ccc3nnc(-c4ccccn4)n3n2)cc1`, 1.29%.
Consider `CCCCOC(=O)CSc1n[nH]c(=O)[nH]c1=O`, for which the inhibition is -18.5%.
As for `O=[N+]([O-])c1nn(-c2cccc(Cl)c2)n(O)c1=NCc1cccnc1`, the inhibition is 75.3%.
In the case of `O=C(Cc1ccccc1)N/N=C/c1ccccc1Cl` it was 1.5%; in that of `COc1ccc2sc(-c3ccc(N(C)C)cc3)c(C#CC(C)(C)O)c2c1`, -0.02%; in that of `O=C(NC(=S)Nc1ccccc1F)C1CCCCC1`, 12.7%.
Then `COc1ccc(-c2cc3ccc(OCc4nn[nH]n4)cc3oc2=O)cc1`, with -4.14%; and `CCn1c(=N)n(CC(=O)c2ccc(Cl)c(Cl)c2)c2ccccc21`, with 15.7%; and `Cn1c(Cn2c(=O)sc3ccccc32)nnc1SCc1ccccc1`, with 1.72%.
Regarding `O=C(C[n+]1cc(Br)cc2ccccc21)c1ccc(Cl)cc1`, the inhibition was -3.95%.
Take `Cc1ccccc1N1CCN(C2CCCN(C(=O)c3ccnn3C)C2)CC1` (stereo not drawn): the inhibition is -9.39%.

For the origin of these results see PubChem BioAssay AID434955 (Southern Research Specialized Biocontainment Screening …, 2010).
